First the molecules themselves.
B1: TPR 5TU (parent)
chain: GGAUCUUCUCGAUCUAACAAAAAAGACAAAUCUGCCACAAAGCUUGAGAGCAUCUUCGGAUGCAGAGGCGGCAGCCUUCGGUGGCGCGAUAGCGCCAACGUUCUCAACUAUGACACGCAAAACGCGUGCUCCGUUGAAUGGAGUUUAUCAUG

Variants at the floor of the assay are shown more often than the library holds them.

Variants of B1 are the subject of the data set. In words: polymerase ribozyme fitness, log enrichment relative to wild type (log ratio); higher = more active; in vitro selection for triplet polymerase activity. The method, boiled down:
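Mutant libraries of both subunits of a heterodimeric triplet polymerase ribozyme were PCR-built, transcribed, and selected once in triplicate, with frozen incubation at −7 °C and capture of gel-excised extended constructs on streptavidin beads before RT-PCR. Illumina sequencing of input and output libraries was filtered to genotypes with ≥10 input reads and ≥1 read per output. Fitness is the logarithm of genotype enrichment over wild-type enrichment, using inverse-variance-weighted replicate averages. The logarithm is base 2.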
For the variant A3C G48A C54U C57A C76U A98G C99G C131G A138C, the “polymerase ribozyme fitness (log ratio)” value is not above -4.2.

Take A3G C5G U7C A12G G65C A119G: the “polymerase ribozyme fitness (log ratio)” value was not above -4.2.

For the variant A3U C85U A107G C118G, the “polymerase ribozyme fitness (log ratio)” value is not above -4.2.

For the variant A3U A20C C87A A91G U104C C114A G141A, the “polymerase ribozyme fitness (log ratio)” value was not above -4.2.

For U4C A49C C125A, the “polymerase ribozyme fitness (log ratio)” value is not above -4.2.

As for A3U C14U C96A G133C A137C, the “polymerase ribozyme fitness (log ratio)” value is not above -4.2.

For U4C A17U G25U C57U A91C A97C C99U A122C C125U U139G U144G U148G, the “polymerase ribozyme fitness (log ratio)” value is not above -4.2.

Take A3G C18U A49C C57U C85G G143U: the “polymerase ribozyme fitness (log ratio)” value is not above -4.2.

As for A3G A23G G67A G88C, the “polymerase ribozyme fitness (log ratio)” value is not above -4.2.

As to U4A A12U A24G G25A C54A G58A C87A C114U A115U A119G C125U U148C, the “polymerase ribozyme fitness (log ratio)” value is not above -4.2.

A3G A39U G70C G133C: the “polymerase ribozyme fitness (log ratio)” value is not above -4.2.

Take A3U U44A G133C: the “polymerase ribozyme fitness (log ratio)” value was not above -4.2.

Consider U4A U6C C10A A16C C27G G34U G65C G86C G112A G126U U135A, for which the “polymerase ribozyme fitness (log ratio)” value was not above -4.2.

Take U4A C8U A28U U55A U56A C95A C116G A147U: the “polymerase ribozyme fitness (log ratio)” value was not above -4.2.

Regarding A3G A17U A26C G50A U55C C75U C95A G141U, the “polymerase ribozyme fitness (log ratio)” value is not above -4.2.

Regarding A3G A60C C76G A91U, the “polymerase ribozyme fitness (log ratio)” value is not above -4.2.

For U4A U31G C108U C114U C132U, the “polymerase ribozyme fitness (log ratio)” value is not above -4.2.

As for U4C A73G U78A G94U G126A C132G, the “polymerase ribozyme fitness (log ratio)” value is not above -4.2.

As to A3G U4A C36A A39U A49C G84A G94A, the “polymerase ribozyme fitness (log ratio)” value is not above -4.2.

For the variant U4A A20C U56G A91U G124A, the “polymerase ribozyme fitness (log ratio)” value is not above -4.2.

Turning to A3U A19U A24U C38A G65C G71A C93A G152C, the “polymerase ribozyme fitness (log ratio)” value was not above -4.2.

As for A3U U6G C36U C75U C93U, the “polymerase ribozyme fitness (log ratio)” value was not above -4.2.

With A3C U4A U15G C18U U56A C63U G92A C99U C118G A122C U148A, the “polymerase ribozyme fitness (log ratio)” value was not above -4.2.

Consider A3G U7C A23U A52G A73U G94A U102G C103G A107U, for which the “polymerase ribozyme fitness (log ratio)” value was not above -4.2.

Consider A3U A39G A52G U144C, for which the “polymerase ribozyme fitness (log ratio)” value was -3.97.

As to U4A A60G C87G U102G A150C, the “polymerase ribozyme fitness (log ratio)” value is not above -4.2.

As for U4A G25C C63U A64C U144C C149G, the “polymerase ribozyme fitness (log ratio)” value is not above -4.2.

As for U4A C36U C75A U82C C95U U135C, the “polymerase ribozyme fitness (log ratio)” value is not above -4.2.

With A3U C36A U55C C79A C99A U145G, the “polymerase ribozyme fitness (log ratio)” value was not above -4.2.

In the case of A3U U78G G94A A122G, the “polymerase ribozyme fitness (log ratio)” value is not above -4.2.

On to U4A G92U, for which the “polymerase ribozyme fitness (log ratio)” value is -0.358.

Take A3U G48U A91C U135G: the “polymerase ribozyme fitness (log ratio)” value was not above -4.2.

As for A3U G46C U77C G86U A98U A121U U127A, the “polymerase ribozyme fitness (log ratio)” value was -4.08.

Regarding U4C A49U C54A C85U C87A U104C, the “polymerase ribozyme fitness (log ratio)” value was not above -4.2.

With A3C C57G G65A G80A A89G G94C C99G G143U, the “polymerase ribozyme fitness (log ratio)” value is not above -4.2.

For U4A U6A A23U A49C G50A C85U, the “polymerase ribozyme fitness (log ratio)” value is not above -4.2.

A3G C93A C99U C118A: the “polymerase ribozyme fitness (log ratio)” value was not above -4.2.

For A3U U6A A29G G48A A122C C132U, the “polymerase ribozyme fitness (log ratio)” value is not above -4.2.

With A3U A30U U33C A41G C57U A60U C87U C118A C132G A150C, the “polymerase ribozyme fitness (log ratio)” value was not above -4.2.

With A3G U9A A20G U33A C51A C75A G84A A150C, the “polymerase ribozyme fitness (log ratio)” value is not above -4.2.

With U4C A49C C85A A106G C108U G126U, the “polymerase ribozyme fitness (log ratio)” value was not above -4.2.

As for U4A A23U C27G G58C C63U G68C C87U, the “polymerase ribozyme fitness (log ratio)” value was not above -4.2.

On to A3U C51U U53A G84A A106U U148A A150G, for which the “polymerase ribozyme fitness (log ratio)” value was not above -4.2.

Consider A3U C14G C43U U44G C72A C93A C103A A142U C149G, for which the “polymerase ribozyme fitness (log ratio)” value is not above -4.2.

With A3U C93U C118U, the “polymerase ribozyme fitness (log ratio)” value is -1.3.

As for A3U C57U U61A A66G A91U, the “polymerase ribozyme fitness (log ratio)” value was not above -4.2.

In the case of A3U U31A C36G G58U A73G C95U, the “polymerase ribozyme fitness (log ratio)” value is not above -4.2.

On to A3U A24C U31G A40U G50C C69G A97U G124A G143A, for which the “polymerase ribozyme fitness (log ratio)” value was not above -4.2.

Turning to A3U U6G A22U G25A C38U C76A C85U C116A, the “polymerase ribozyme fitness (log ratio)” value was not above -4.2.

Turning to A3U C38G G50A A64U G94C A110U, the “polymerase ribozyme fitness (log ratio)” value is not above -4.2.

As for A3G A20G A30C U53A C76U U135G, the “polymerase ribozyme fitness (log ratio)” value was not above -4.2.

Turning to U4A A23G A30G C93A U145G U146C, the “polymerase ribozyme fitness (log ratio)” value is not above -4.2.

With A3U C32U C54U G67U G86U, the “polymerase ribozyme fitness (log ratio)” value was not above -4.2.

On to A3C U4G C103A U139A A142U, for which the “polymerase ribozyme fitness (log ratio)” value was not above -4.2.

Regarding U4A G92A G141A, the “polymerase ribozyme fitness (log ratio)” value is -3.96.

As for A3G G11C A20U G34A C85G C93U U146G, the “polymerase ribozyme fitness (log ratio)” value is not above -4.2.

Regarding A3G U44A G80C U82C G88A G92A, the “polymerase ribozyme fitness (log ratio)” value was not above -4.2.

For the variant U4C A21U G84U A106U A137U G152U, the “polymerase ribozyme fitness (log ratio)” value was not above -4.2.

Turning to A3U C10G C38A A150G, the “polymerase ribozyme fitness (log ratio)” value was not above -4.2.

Regarding A3C U15G A24G G117A U151A, the “polymerase ribozyme fitness (log ratio)” value was not above -4.2.

Regarding A3U A19C C96G C108G G141C, the “polymerase ribozyme fitness (log ratio)” value is not above -4.2.

Consider A3U C36U G46A G94C G136C, for which the “polymerase ribozyme fitness (log ratio)” value was not above -4.2.

As for A3C G11C G48A A60G A73U C76U G84U C116U A122U U127G, the “polymerase ribozyme fitness (log ratio)” value is not above -4.2.

For A3G C43U G65U G68A G71A G86U G112U G152A, the “polymerase ribozyme fitness (log ratio)” value is not above -4.2.

Turning to A3U A12U A21G C27G G50C A66C A121U, the “polymerase ribozyme fitness (log ratio)” value was not above -4.2.

For A3G C14G A16C U82C C129G C131A, the “polymerase ribozyme fitness (log ratio)” value was not above -4.2.

As for A3G A19G A26G G58C G70C C76G U78C C108U A119U U145G, the “polymerase ribozyme fitness (log ratio)” value was not above -4.2.

In the case of A3U A16G C38G C43G G58U G59A C118U G124C, the “polymerase ribozyme fitness (log ratio)” value was not above -4.2.

Take U4A C35U C79A G81U C93A U102A U127A: the “polymerase ribozyme fitness (log ratio)” value was not above -4.2.

Take A3C U31G U56G C93G C96G G133C: the “polymerase ribozyme fitness (log ratio)” value is not above -4.2.

A3U U15C G81U A97U G128U: the “polymerase ribozyme fitness (log ratio)” value was -3.58.

As to A3G A12C C76G C93A C96A G136C, the “polymerase ribozyme fitness (log ratio)” value is not above -4.2.

For the variant U4C A47C A64G A91U A119U, the “polymerase ribozyme fitness (log ratio)” value was not above -4.2.

A3G C5U C14U U15C U55A G62A G92A U101C G128C: the “polymerase ribozyme fitness (log ratio)” value is not above -4.2.

For the variant A3G A26U C27U A28U G88A C129G U144C, the “polymerase ribozyme fitness (log ratio)” value is not above -4.2.

In the case of A3U U4G U6A A29U G50A U104G, the “polymerase ribozyme fitness (log ratio)” value is not above -4.2.

On to U4A U9A A12C A17C A30U G86A A89G, for which the “polymerase ribozyme fitness (log ratio)” value is not above -4.2.

With A3U C57A G58A G68U A119G G141U, the “polymerase ribozyme fitness (log ratio)” value was not above -4.2.

In the case of A3G U31G A39U C57G U61G, the “polymerase ribozyme fitness (log ratio)” value was not above -4.2.

For A3C U6C C32U A49C A147C U148A, the “polymerase ribozyme fitness (log ratio)” value was not above -4.2.

As to U4A G11A C18U A23C A40C U55C G71A U146C, the “polymerase ribozyme fitness (log ratio)” value was not above -4.2.

For A3U C35U A52U C87U U134G, the “polymerase ribozyme fitness (log ratio)” value is not above -4.2.

With A3U U55A C87U A91C, the “polymerase ribozyme fitness (log ratio)” value was not above -4.2.

Values taken from the RNAGym collection of RNA variant scans (doi:10.1073/pnas.2313332121).
